Results taken from the supplement of paper PMC6531468.
The other results are listed elsewhere or left out. Values come from read counts of a selection and are noisy. Each score is taken over the longer molecules that contain the sequence shown.

test system: IMP3 RRM1-2; assay: 6-mer SELEX enrichment z-score vs GST control; IMP3 is the RNA-binding protein IGF2BP3; higher = more enriched by binding; settings: construct: RRM1-2 (1-163); SELEX round: R2
Description: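 SELEX-seq with GST-tagged IMP3 RRM1-2 (Met1-Asn163) and an N40 RNA pool, round 2. 6-mer enrichment z-score normalised to GST SELEX. RNA written as DNA (T = U).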

IMP3 RRM1-2, sequence (chain, as listed by the source): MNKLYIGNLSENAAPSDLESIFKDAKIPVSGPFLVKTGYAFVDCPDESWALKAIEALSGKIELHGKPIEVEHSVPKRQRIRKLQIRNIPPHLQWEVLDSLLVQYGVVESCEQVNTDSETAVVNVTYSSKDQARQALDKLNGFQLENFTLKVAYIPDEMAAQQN

| Sequence | 6-mer SELEX enrichment z-score |
| --- | --- |
| ACCGAG | -1.13 |
| GGCTCA | 0.559 |
| GCCAAG | -0.526 |
| TTTCTC | 0.511 |
| CGTTTC | 0.477 |
| CCGCGG | -0.154 |
| CCGTTC | 0.05 |
| ACCTCA | 0.307 |
| AGTTTG | 0.227 |
| TGGATC | 0.212 |
| ATCTGG | 0.348 |
| GACCCA | -1.03 |
| CATGCC | 0.23 |
| CATGAT | 0.424 |
| GTATTA | 0.042 |
| AACCCC | -1.56 |
| GTTACA | 0.359 |
| ATACTG | -0.137 |
| CTCCGA | -0.632 |
| GTCATA | 0.41 |

| Sequence | 6-mer SELEX enrichment z-score |
| --- | --- |
| CGACCG | -1.1 |
| CGGATC | 0.07 |
| GTCTGC | 0.324 |
| CTTGTA | 0.075 |
| CTGTGG | 0.199 |
| AGCATG | 0.492 |
| CGCAGC | 0.16 |
| TCATGG | 0.706 |
| CACAAT | 1.87 |
| GAGATG | -0.689 |
| TATCGA | -0.124 |
| CTTCCT | 0.148 |
| AGACCG | -1.34 |
| GTCCAG | -0.082 |
| ATTCAT | 1.95 |
| GTGTTC | 0.314 |
| GAGGTT | 0.255 |
| CCGCGC | -0.244 |
| TTATAA | -0.189 |
| GGAATA | -0.774 |

molecular target: IMP3 full-length (UniProt O00425); assay: as above; settings: construct: FL IMP3 (1-579); SELEX round: R4
Description: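 SELEX-seq with GST-tagged full-length IMP3 and an N40 RNA pool, round 4. Each 6-mer is scored as an enrichment z-score of sequence tags containing it, normalised to the matching GST SELEX round. RNA written as DNA (T = U).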

UniProt O00425, sequence (O00425 whole entry): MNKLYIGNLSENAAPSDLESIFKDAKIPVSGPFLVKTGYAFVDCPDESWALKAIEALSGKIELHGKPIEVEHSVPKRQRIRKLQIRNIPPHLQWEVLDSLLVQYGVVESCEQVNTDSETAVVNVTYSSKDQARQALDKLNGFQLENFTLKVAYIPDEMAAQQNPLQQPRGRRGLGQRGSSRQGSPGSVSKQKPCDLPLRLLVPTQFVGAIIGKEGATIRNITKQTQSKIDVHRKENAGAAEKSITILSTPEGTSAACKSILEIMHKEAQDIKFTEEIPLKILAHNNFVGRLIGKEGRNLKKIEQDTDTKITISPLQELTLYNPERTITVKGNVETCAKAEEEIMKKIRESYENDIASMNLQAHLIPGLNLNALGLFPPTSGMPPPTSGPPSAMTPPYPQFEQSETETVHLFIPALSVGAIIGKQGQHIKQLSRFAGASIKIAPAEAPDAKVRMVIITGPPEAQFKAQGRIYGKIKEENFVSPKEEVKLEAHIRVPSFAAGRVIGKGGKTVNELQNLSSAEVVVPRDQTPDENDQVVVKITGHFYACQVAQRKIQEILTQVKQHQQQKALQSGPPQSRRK

| Sequence | 6-mer SELEX enrichment z-score |
| --- | --- |
| ACCGAG | -1.27 |
| GGCTCA | 0.873 |
| GCCAAG | -0.348 |
| TTTCTC | 0.312 |
| CGTTTC | -0.066 |
| CCGCGG | 0.447 |
| CCGTTC | 0.297 |
| ACCTCA | -0.552 |
| AGTTTG | -0.197 |
| TGGATC | -0.086 |
| ATCTGG | 0.256 |
| GACCCA | -1.64 |
| CATGCC | 0.115 |
| CATGAT | 0.883 |
| GTATTA | -0.155 |
| AACCCC | -1.97 |
| GTTACA | 0.293 |
| ATACTG | 0.064 |
| CTCCGA | -0.675 |
| GTCATA | 0.62 |

| Sequence | 6-mer SELEX enrichment z-score |
| --- | --- |
| CGACCG | -0.825 |
| CGGATC | 0.378 |
| GTCTGC | 0.322 |
| CTTGTA | -0.248 |
| CTGTGG | 0.091 |
| AGCATG | 0.588 |
| CGCAGC | 0.371 |
| TCATGG | 0.847 |
| CACAAT | 2.01 |
| GAGATG | -0.445 |
| TATCGA | -0.593 |
| CTTCCT | -0.2 |
| AGACCG | -0.956 |
| GTCCAG | 0.221 |
| ATTCAT | 2.22 |
| GTGTTC | -0.043 |
| GAGGTT | 0.131 |
| CCGCGC | 0.041 |
| TTATAA | 0.182 |
| GGAATA | -0.312 |

test system: IMP3 KH1-2; assay: as above; settings: construct: KH1-2 (164-376); SELEX round: R4
Description: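 SELEX-seq with GST-tagged IMP3 KH1-2 (Pro164-Phe376) and an N40 RNA pool, round 4 (stringent 300/600 mM KCl washes). 6-mer z-score of sequence-tag enrichment normalised to the corresponding GST SELEX round; RNA k-mers written as DNA (T for U).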

IMP3 KH1-2, sequence (chain, as listed by the source): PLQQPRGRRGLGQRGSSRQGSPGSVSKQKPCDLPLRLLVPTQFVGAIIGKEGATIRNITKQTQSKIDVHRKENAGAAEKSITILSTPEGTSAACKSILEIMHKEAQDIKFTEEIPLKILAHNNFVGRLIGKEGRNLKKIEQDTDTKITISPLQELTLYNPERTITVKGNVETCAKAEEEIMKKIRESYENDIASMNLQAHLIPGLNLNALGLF

| Sequence | 6-mer SELEX enrichment z-score |
| --- | --- |
| ACCGAG | -3.13 |
| GGCTCA | 0.243 |
| GCCAAG | -0.715 |
| TTTCTC | 0.653 |
| CGTTTC | -0.453 |
| CCGCGG | -0.056 |
| CCGTTC | 0.326 |
| ACCTCA | -0.85 |
| AGTTTG | -0.181 |
| TGGATC | -0.252 |
| ATCTGG | -0.176 |
| GACCCA | -2.01 |
| CATGCC | -0.208 |
| CATGAT | 1.05 |
| GTATTA | 0.061 |
| AACCCC | -0.95 |
| GTTACA | 0.188 |
| ATACTG | 0.864 |
| CTCCGA | -0.949 |
| GTCATA | 0.322 |

| Sequence | 6-mer SELEX enrichment z-score |
| --- | --- |
| CGACCG | -1.38 |
| CGGATC | -0.096 |
| GTCTGC | 0.022 |
| CTTGTA | -0.163 |
| CTGTGG | 0.112 |
| AGCATG | -0.099 |
| CGCAGC | -0.491 |
| TCATGG | 0.24 |
| CACAAT | 2.21 |
| GAGATG | 0.067 |
| TATCGA | -0.849 |
| CTTCCT | 0.622 |
| AGACCG | -0.864 |
| GTCCAG | -0.106 |
| ATTCAT | 2.09 |
| GTGTTC | -0.108 |
| GAGGTT | 0.128 |
| CCGCGC | -0.661 |
| TTATAA | 1.22 |
| GGAATA | 0.582 |

test system: IMP3 KH3-4; assay: as above; settings: construct: KH3-4 (377-579); SELEX round: R4
Description: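 SELEX-seq with GST-tagged IMP3 KH3-4 (Pro377-Lys579) and an N40 RNA pool, round 4. 6-mer z-score of sequence-tag enrichment normalised to the corresponding GST SELEX round; RNA k-mers written as DNA (T for U).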

IMP3 KH3-4, sequence (chain, as listed by the source): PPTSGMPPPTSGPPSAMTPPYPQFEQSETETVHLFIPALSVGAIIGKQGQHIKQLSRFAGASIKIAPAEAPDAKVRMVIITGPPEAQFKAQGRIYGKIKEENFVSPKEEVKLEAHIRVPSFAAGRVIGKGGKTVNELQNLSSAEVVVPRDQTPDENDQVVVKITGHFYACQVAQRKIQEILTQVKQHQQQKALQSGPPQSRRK

| Sequence | 6-mer SELEX enrichment z-score |
| --- | --- |
| ACCGAG | -3.15 |
| GGCTCA | 0.367 |
| GCCAAG | -0.762 |
| TTTCTC | 0.442 |
| CGTTTC | -0.453 |
| CCGCGG | -0.332 |
| CCGTTC | -0.24 |
| ACCTCA | -1.27 |
| AGTTTG | -0.003 |
| TGGATC | -0.112 |
| ATCTGG | -0.145 |
| GACCCA | -2.68 |
| CATGCC | -0.845 |
| CATGAT | 1.38 |
| GTATTA | 0.379 |
| AACCCC | -2.22 |
| GTTACA | 0.117 |
| ATACTG | 0.867 |
| CTCCGA | -1.25 |
| GTCATA | 0.554 |

| Sequence | 6-mer SELEX enrichment z-score |
| --- | --- |
| CGACCG | -1.85 |
| CGGATC | -0.167 |
| GTCTGC | -0.11 |
| CTTGTA | -0.051 |
| CTGTGG | 0.109 |
| AGCATG | -0.073 |
| CGCAGC | -0.783 |
| TCATGG | 0.313 |
| CACAAT | 1.42 |
| GAGATG | 0.438 |
| TATCGA | -0.648 |
| CTTCCT | 0.213 |
| AGACCG | -1.25 |
| GTCCAG | -0.23 |
| ATTCAT | 1.8 |
| GTGTTC | -0.052 |
| GAGGTT | 0.356 |
| CCGCGC | -1.11 |
| TTATAA | 2.31 |
| GGAATA | 1.25 |
